# Sequences with one replicate were seen in a single cluster, so their values are uncertain.
# System: ATP
# Assay: switch fluorescence ratio, 500 uM ATP over buffer (Cy3 cluster intensity, sum of 5 cycles each) (fold (ratio)); higher = stronger signal-on switching upon ATP binding; sequences stand for … in TCGTCGGCAGCGTCAGATGTGTATAAGAGACAGTTTTTTTTTTTTTTTTTTTTTTTTT…TC
# Conditions: aptamer strand: ATP DNA aptamer (quencher-CACCTGGGGGAGTATTGCGGAGGAAGG + anchor), 100 nM annealed; ATP concentration: 500 uM; one replicate
# How it was run: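 Switching-strand clusters labelled with Cy3 on a modified Illumina MiSeq flow-cell were annealed to 100 nM quencher-labelled ATP aptamer, imaged in selection buffer, and re-imaged after 15 min with 500 uM ATP at 22 °C. This was done over five cycles with NaOH stripping and re-annealing in between. The fluorescence ratio is summed target-cycle over summed buffer-cycle Cy3 intensity per cluster, averaged per switch-domain sequence, excluding clusters outside 100-1000 RFU.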
# 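Also: ATP exposure 15 min at 22 °C before imaging.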
row,Sequence,switch fluorescence ratio
1,GCGATTGGCA,1.01
2,GCGATTGGTG,1.02
3,GCGCAAGGTC,1.7
4,GCGCACACCT,1.17
5,GCGCCACCTA,1.01
6,GCGCCCATGG,1.03
7,GCGCCCTCCC,2.41
8,GCGCCCTGAC,1.56
9,GCGCGCAAGG,0.967
10,GCGCGCCGT,0.957
11,GCGCGCTTAG,0.99
12,GCGCGGCAGA,0.989
13,GCGCGGTGGT,1.06
14,GCGCTTACGT,1.1
15,GCGCTTGAGA,1.03
16,GCGCTTTCGT,0.951
17,GCGGAATATC,3.47
18,GCGGAATGAT,1.03
19,GCGGACATAA,1.01
20,GCGGACATGT,0.982
21,GCGGACTCAA,1.09
22,GCGGAGCGGT,1.13
23,GCGGATGACC,0.961
24,GCGGATTAAA,0.987
25,GCGGATTTCC,0.999
26,GCGGCAGACA,0.931

row,Sequence,switch fluorescence ratio
1,GCGGCATTTT,0.972
2,GCGGCCCAAC,1.02
3,GCGGCCCGGG,1.07
4,GCGGCGAGGT,1.02
5,GCGGCGCGGT,1.03
6,GCGGCGCTGC,1.01
7,GCGGGAGGTG,1.05
8,GCGGGATAGG,1.04
9,GCGGGCCTAC,1.1
10,GCGGGCGGTG,1.04
11,GCGGGGCAAT,1.03
12,GCGGGGCGGA,1.03
13,GCGGGTAAAA,1.02
14,GCGGGTCCGT,0.983
15,GCGGTAACGA,1.04
16,GCGGTACGT,0.993
17,GCGGTCTTCC,1.01
18,GCGGTTCGTT,0.978
19,GCGTAACTAG,1.06
20,GCGTACAGGC,0.957
21,GCGTACCATA,1.06
22,GCGTAGTGGC,1
23,GCGTAGTGTG,0.981
24,GCGTCAATTT,2.09
25,GCGTCAGACG,1.01
26,GCGTCCGGTG,1.05

row,Sequence,switch fluorescence ratio
1,GCGTCGTTCT,1.03
2,GCGTCTATTT,0.998
3,GCGTCTCGAT,0.96
4,GCGTCTGACT,0.937
5,GCGTGCAATC,1.31
6,GCGTGTGACC,1.05
7,GCGTGTGCAG,1.04
8,GCGTGTTTGG,1.02
9,GCGTTACGTA,1.05
10,GCGTTATGCT,1.03
11,GCGTTGATAG,1.01
12,GCGTTGCAC,0.989
13,GCGTTGTAGA,1.01
14,GCGTTTATCG,0.955
15,GCGTTTCAGA,1
16,GCGTTTGATG,1.01
17,GCGTTTTCAG,0.997
18,GCTAAACCAT,1.02
19,GCTAAAGTGT,0.966
20,GCTAACGGTG,1.05
21,GCTAAGTAAT,1.04
22,GCTAAGTTGT,0.955
23,GCTAATTACG,1.08
24,GCTAATTTGT,1.02
25,GCTACAGGTC,1.04
26,GCTACAGTTG,0.959

row,Sequence,switch fluorescence ratio
1,GCTACCCTCA,1.04
2,GCTACCGAGA,1.11
3,GCTACCTCGC,1.22
4,GCTACGACGA,1.35
5,GCTACGCCAT,1.79
6,GCTACGGCGG,1.04
7,GCTAGACGAT,1.06
8,GCTAGACTCT,1.16
9,GCTAGACTGG,1.01
10,GCTAGCAT,1.07
11,GCTAGCCGA,0.98
12,GCTAGTGGCT,1.01
13,GCTAGTTTGG,1.03
14,GCTATACCCG,1.08
15,GCTATACCCT,1.24
16,GCTATATAGG,0.966
17,GCTATATGCT,0.951
18,GCTATGATGT,0.976
19,GCTATGCGCG,0.984
20,GCTATTATGT,1.02
21,GCTATTTAGA,0.985
22,GCTATTTATT,0.983
23,GCTCAACTTG,0.988
24,GCTCAGAAGA,0.967
25,GCTCATTG,0.982
26,GCTCCACTC,1.57

row,Sequence,switch fluorescence ratio
1,GCTCCCAAAA,1.11
2,GCTCCCACAA,3.41
3,GCTCCGACTA,4.7
4,GCTCCGCTCG,3.5
5,GCTCCGTTAG,3.42
6,GCTCGGGTAT,0.981
7,GCTCGTCGGG,1.01
8,GCTCTAATTC,1.11
9,GCTCTACTTT,1.01
10,GCTCTATTGT,1.01
11,GCTCTCGAGT,1.02
12,GCTCTGGCCA,0.99
13,GCTCTTGGCT,0.995
14,GCTCTTGGGG,1.01
15,GCTGAACGCG,1.02
16,GCTGACACGA,1.05
17,GCTGAGAAAG,0.949
18,GCTGAGATCA,0.982
19,GCTGAGCGCC,0.954
20,GCTGAGGACC,1
21,GCTGATAGGG,1.03
22,GCTGATCTAG,1.01
23,GCTGATG,1.04
24,GCTGATGTT,0.978
25,GCTGATTCCT,0.992
26,GCTGCACTCT,1.06

row,Sequence,switch fluorescence ratio
1,GCTGCAGAAC,2.13
2,GCTGCAGTTG,1.06
3,GCTGCATCAG,1
4,GCTGCATGG,1.02
5,GCTGCCCCCC,1.57
6,GCTGCGATCG,1.07
7,GCTGCGCGCA,1.02
8,GCTGCGGACG,0.986
9,GCTGCGGTTA,1.03
10,GCTGCTAACG,1.03
11,GCTGGAAGG,1.02
12,GCTGGACGGC,0.968
13,GCTGGATCTA,1.02
14,GCTGGCGGCC,1
15,GCTGGCTAGC,0.97
16,GCTGGGCTCG,1.04
17,GCTGGGTCAC,1.01
18,GCTGGGTTCC,1.03
19,GCTGGTCCG,0.938
20,GCTGGTGCA,1.03
21,GCTGGTGCGG,0.984
22,GCTGGTTTTT,0.949
23,GCTGTAAGTG,0.975
24,GCTGTATGC,0.971
25,GCTGTGAAT,0.974
26,GCTGTGATCC,1.02

row,Sequence,switch fluorescence ratio
1,GCTGTGTGCT,0.97
2,GCTTAAAAAG,1.02
3,GCTTAATGTT,1
4,GCTTACGCCC,1.02
5,GCTTACTAA,1.07
6,GCTTACTTAT,1.04
7,GCTTAGAGGG,1
8,GCTTAGGAGG,0.982
9,GCTTAGTCCG,1.07
10,GCTTAGTGCG,0.949
11,GCTTATCTAT,0.999
12,GCTTATTTAG,0.931
13,GCTTCCCTAT,1.08
14,GCTTCCCTTT,1.06
15,GCTTCCGGCT,1.07
16,GCTTCCGGGA,1.53
17,GCTTCGGTGT,0.959
18,GCTTCTGAA,0.999
19,GCTTGACATT,0.988
20,GCTTGAGAGA,1.04
21,GCTTGCATAG,1.03
22,GCTTGCGCTA,1.03
23,GCTTGTATGT,1.02
24,GCTTGTGCGC,1.05
25,GCTTGTGGCA,0.999
26,GCTTGTGTG,0.971

row,Sequence,switch fluorescence ratio
1,GCTTTAATAC,1.78
2,GCTTTACCGA,1
3,GCTTTACGG,1.01
4,GCTTTACTTG,1.03
5,GCTTTCAGTA,0.97
6,GCTTTGATTG,0.99
7,GCTTTGGGTT,0.988
8,GCTTTGTGTC,0.992
9,GGAAAAATCA,1.03
10,GGAAAACGCG,1.02
11,GGAAAATATT,1.01
12,GGAAAATTAG,0.987
13,GGAAACGGAA,1.01
14,GGAAACTGTG,0.968
15,GGAAAGGTGG,1.11
16,GGAAAGGTTG,0.977
17,GGAAATTCTA,1.03
18,GGAACCATGG,1.02
19,GGAACCGTAA,1.4
